Values marked as one replicate rest on one cluster of the flow cell; about a third of the high ones do not repeat.
Tested on: ATP
Assay: switch fluorescence ratio, 500 uM ATP over buffer (Cy3 cluster intensity, sum of 5 cycles each) (fold (ratio)); higher = stronger signal-on switching upon ATP binding; sequences stand for … in TCGTCGGCAGCGTCAGATGTGTATAAGAGACAGTTTTTTTTTTTTTTTTTTTTTTTTT…TC
Details: aptamer strand: ATP DNA aptamer (quencher-CACCTGGGGGAGTATTGCGGAGGAAGG + anchor), 100 nM annealed; ATP concentration: 500 uM; one replicate
Outline: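 Imaging in selection buffer was followed by imaging after 15 min with 500 uM ATP at 22 °C, for Cy3-labelled switching-strand clusters annealed to 100 nM quencher-labelled ATP aptamer on a modified Illumina MiSeq flow-cell. Five of these buffer/ATP cycles ran, separated by NaOH stripping and re-annealing. The fluorescence ratio per cluster is summed target-cycle over summed buffer-cycle Cy3 intensity, averaged per switch-domain sequence; clusters outside 100-1000 RFU were removed.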
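Further: ATP exposure 15 min at 22 °C before imaging.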

Row | Sequence | switch fluorescence ratio
1 | TCTGGCGCAG | 1.06
2 | TCTGGCTTTG | 1
3 | TCTGGTCCTG | 0.979
4 | TCTGGTCTGC | 1.04
5 | TCTGGTGT | 1.06
6 | TCTGTAAGGA | 1.02
7 | TCTGTATACG | 0.985
8 | TCTGTATTAT | 0.993
9 | TCTGTCCAAT | 1.06
10 | TCTGTGGGC | 0.935
11 | TCTGTGTCCC | 1.03
12 | TCTGTTAGT | 1.03
13 | TCTGTTGGTC | 1.55
14 | TCTGTTGTAA | 1.01
15 | TCTTAATGAA | 0.962
16 | TCTTACTTAT | 0.961
17 | TCTTAGAGGA | 1.01
18 | TCTTAGGTAT | 1
19 | TCTTCCCCGA | 2.85
20 | TCTTCCTACT | 1.4
21 | TCTTCTCTCA | 1.01
22 | TCTTGACCCA | 0.998
23 | TCTTGAGGCT | 0.989
24 | TCTTGGGACC | 1.14
25 | TCTTGTGAGA | 0.997
26 | TCTTTAAACC | 1.06

Row | Sequence | switch fluorescence ratio
27 | TCTTTAGTA | 0.99
28 | TCTTTCATGG | 0.981
29 | TCTTTCCAGC | 1.04
30 | TCTTTCCGGC | 0.999
31 | TCTTTCCGTT | 1.01
32 | TCTTTGACC | 1.01
33 | TCTTTGGAAA | 1
34 | TCTTTGTCCT | 1.01
35 | TCTTTTAGGG | 1.01
36 | TCTTTTCCT | 1.05
37 | TCTTTTTAAT | 1.1
38 | TGAAACAGCC | 1.05
39 | TGAAAGTTCT | 0.999
40 | TGAAATATGA | 1.05
41 | TGAAATTAAT | 0.98
42 | TGAACATTTC | 1.13
43 | TGAACCCCCT | 1.28
44 | TGAACGACAT | 1.03
45 | TGAACGGTAG | 1.02
46 | TGAACTTCTG | 1.01
47 | TGAAGCATGA | 1.05
48 | TGAAGTGTCA | 1.06
49 | TGAATGCCTG | 1.03
50 | TGAATGGAC | 1.11
51 | TGAATTAAAG | 0.991
52 | TGAATTGTCT | 0.979

Row | Sequence | switch fluorescence ratio
53 | TGAATTTC | 0.971
54 | TGAATTTCCA | 0.971
55 | TGACAAAGAT | 1.01
56 | TGACAACGCT | 1.27
57 | TGACACGTCG | 0.945
58 | TGACACTAGG | 0.989
59 | TGACAGAACC | 1.08
60 | TGACAGTGTG | 0.974
61 | TGACATATCA | 1
62 | TGACATATGG | 1.05
63 | TGACATCTTT | 1.04
64 | TGACATGTCA | 1.03
65 | TGACATTCCT | 1.43
66 | TGACCAGCTT | 1
67 | TGACCATGGT | 1.01
68 | TGACCATTAA | 1.02
69 | TGACCCCCAT | 6.39
70 | TGACCGTACA | 1.53
71 | TGACCTATCA | 1.02
72 | TGACCTTGGT | 1.03
73 | TGACGAGAGC | 1.06
74 | TGACGAGCAG | 1.04
75 | TGACGCTAG | 0.992
76 | TGACGTAGAA | 1.07
77 | TGACGTATCG | 0.986
78 | TGACGTGGAA | 1.06

Row | Sequence | switch fluorescence ratio
79 | TGACTACCTT | 1.21
80 | TGACTAGCCG | 1.04
81 | TGACTCTTCT | 0.976
82 | TGACTGAATG | 0.989
83 | TGACTGCTGA | 1.02
84 | TGACTGGGAG | 1.02
85 | TGACTGTCCT | 1.03
86 | TGAGAAACCA | 1.05
87 | TGAGACGCGT | 0.964
88 | TGAGACTTCT | 1.02
89 | TGAGACTTGG | 0.886
90 | TGAGAGACT | 0.984
91 | TGAGAGGGGA | 0.965
92 | TGAGCAATCG | 2.73
93 | TGAGCAATTG | 1.2
94 | TGAGCAGCTA | 1.01
95 | TGAGCCCAAT | 1.02
96 | TGAGCCGTTA | 0.996
97 | TGAGCGCGAG | 0.999
98 | TGAGCGCGGC | 0.954
99 | TGAGCGGTG | 1.01
100 | TGAGCGTCAA | 1.07
101 | TGAGCGTTGT | 0.944

— the supplement of paper PMC10126150
